# Experimental data reported in the supplement of paper PMC11417369.
# ± gives the standard deviation of the averaged measurements. This is one part of the list.
# Test system: PfAP2-EXP AP2 domain (GST-tagged)
# Experiment: gcPBM binding intensity (ln(normalized median fluorescence intensity)); higher = stronger DNA binding
# Method in brief: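 Binding intensity is the highest Masliner-normalised natural-log median intensity over replicate spots in either probe orientation. To obtain it, GST-tagged P. falciparum DNA-binding domains made in E. coli were incubated for 1 h on an Agilent 4 × 180k array of primer-extended double-stranded 36-bp intergenic genomic probes plus negative controls. Detection used Alexa488 anti-GST antibody with scanning at 488 nm.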
row,Sequence,gcPBM binding intensity (ln)
1,ATATCTTATGTTATCACACACACACGCACAAAACAG [CACACA_site6800],9.02 ± 0.28
2,ATTTGTTTACCTAAAAGTACAAATTTTTTATGTATA [XGTACX_site7689],8.37 ± 0.33
3,TGTATTTATAAACATGCACACGTGGTTGTATTTATA [CACACA_site5762],8.81 ± 0.23
4,ATTTTTTTTATTTTTTATATAATTTTTTTATATTAT [CACACA_negctrl_site1521],8.44 ± 0.54
5,TGTTTTGTTTTTTGGGGTACATGTTTTGTATTATAT [XGTACX_site7997],9.54 ± 0.71
6,TATCCCTTAGAATACACACCCATATGAGTGTGAACT [CACACA_site7398],8.38 ± 0.38
7,ATAATATATATATATGCATGTACATATTTATCTTTA [TGCATGCA_site32],8.78 ± 0.35
8,AAGGCAAGCACTTAAACATGCATATAATAATATCAT [TGCATGCA_site698],8.72 ± 0.17
9,ATGTATTAAAAAAATTGTACTATAAAATGTAACCGC [XGTACX_site8083],8.79 ± 0.32
10,AAAAAAAAAAAAAACATACACACAAATATATACATA [CACACA_site4010],8.5 ± 0.58
11,TATACATACAGACCCACACACAAAAAAAAAAAAAAA [CACACA_site6536],8.19 ± 0.61
12,ATATTATTTTAAAGTACACACATATATTAATATATA [CACACA_site2315],8.66 ± 0.15
13,ATATATATATATATATGTACATATATATATGTATAT [XGTACX_site3959],10.2 ± 0.33
14,TTAATTAAATATTATACACACAAAAAAATAACTTTA [CACACA_site6197],8.4 ± 0.42
15,ATTTATTTATTTATATGTACTTATATATGTATTTTC [XGTACX_site6269],8.85 ± 0.25
16,TATTGAAACGTATAGACACACATATGATATATATAT [CACACA_site3226],9.3 ± 0.085
17,TGTATTTAAAATGGTTGTACATAAATAAAAATAAAA [XGTACX_site7771],8.71 ± 0.38
18,AAAGTGTTAACCTAATCTTTAGTTTTTAAACAATAT [CACACA_negctrl_site841],8.17 ± 0.4
19,ATAATATTTTGAAACGGTACACTTTTAAAATACACT [XGTACX_site4423],8.55 ± 0.46
20,AAAATAAGGAAAAAAAAAAAAAAAAAAAAAAAAAAG [CACACA_negctrl_site1291],8.23 ± 0.58
21,AAAAAAAAAAAACATACACACAAATATGTACATACA [CACACA_site7807],8.61 ± 0.21
22,TATATATTAATATATGCATGTACGATTATTATAATA [TGCATGCA_site446],8.96 ± 0.42

row,Sequence,gcPBM binding intensity (ln)
1,TAAATACAAAAATGTACACACATATAAATATTTTTA [CACACA_site7612],8.31 ± 0.28
2,AATAAAAATCCACAAGCACACAAATGTACTTATATA [CACACA_site8783],8.18 ± 0.4
3,AACACTACATAAAACTGTACAATAGTATTTTATTAT [XGTACX_site996],8.4 ± 0.33
4,ACAAGATGATGGAAATGTACATAAAAAGAATCATAT [XGTACX_site8682],9.3 ± 0.44
5,TTTTTTTTTATATTTAGTACATATATATTATTATAT [XGTACX_site3334],8.39 ± 0.31
6,ATTATTAAAATGATATGTACGCACATAATATACATA [XGTACX_site3236],8.5 ± 0.24
7,CTTAGTGTATTTGAATGTACGCATAAATATAATTAT [XGTACX_site2830],8.6 ± 0.33
8,TATTTATATTTTAACACACACATATTTATATTTATA [CACACA_site7324],8.43 ± 0.3
9,ATTTATTCATTTGGGTGTACTATTTAAAAAAAACAA [XGTACX_site498],8.66 ± 0.35
10,TATATTTTTTAAACCACACACAATATAGAGTATAAT [CACACA_site4510],8.66 ± 0.47
11,TATATATAATTTTATACATGCACATATTATATATAT [TGCATGCA_site1036],8.79 ± 0.092
12,TTTATATACTATTCAAAGTGATAAATAATATATGAA [TGCATGCA_negctrl_site352],8.21 ± 0.35
13,TATAAATAAAGACACACACACATATAAATAAATATA [CACACA_site7155],8.82 ± 0.4
14,ATTTATTTATTAAGATGTACTTATTAAAAATAATAA [XGTACX_site7392],8.04 ± 0.35
15,AAAAAAAAAAAACATACACACAATAAAATAGGGGTA [CACACA_site2399],8.69 ± 0.49
16,CACATACAGACATACACACACATATAGATTAATATA [CACACA_site6399],8.59 ± 0.41
17,TTAGGGTTTTATAAATGTACTTATTTATACATCCTC [XGTACX_site5769],8.39 ± 0.42
18,AATAAGAAATGTAAATGTACATAAAAAAAAGTATAT [XGTACX_site3573],9.03 ± 0.49
19,TATATATATATATTATGTACATATATATTAAATATG [XGTACX_site2494],9.74 ± 0.38
20,ATTAAATGCAGTTCGGTGCATTAAGGTTATGATGAA [GTGCAC_site9883],8.67 ± 0.16
21,ATTTTTTAACATATCATACACACAACCACTTTTTAT [CACACA_site1961],8.82 ± 0.36
22,TAAACATTTTTGCACGCACACAAAAAAAAAATAAAA [CACACA_site167],8.6 ± 0.3

row,Sequence,gcPBM binding intensity (ln)
1,TTTTTAACATATCATACACACAACAACTTTTTATAG [CACACA_site1962],8.47 ± 0.42
2,CAAGCCCTTCTGCTTACACACAGTAATTATTGTGTA [CACACA_site2953],8.48 ± 0.44
3,TAAAAATATATACATACATGCATACATATATATGTA [TGCATGCA_site774],8.52 ± 0.25
4,CATTCATTTATTAATTGTACTTTTAAGGTTAAATAA [XGTACX_site5838],8.28 ± 0.28
5,ATTATATATACACGCACACACACTTATATATATATA [CACACA_site9093],9.97 ± 0.37
6,TAGGAAAAGAAAAGCACACACATAAATAAATATATA [CACACA_site504],8.66 ± 0.45
7,TAATTTATTATATTTTGTACGTAAAATTATTATTGT [XGTACX_site8155],8.43 ± 0.38
8,AATATATATTTATATTGTACATATATATATATTTCT [XGTACX_site2603],8.42 ± 0.44
9,AATATTTATTTTACATGTACTTATTTTTCTTTTAAC [XGTACX_site3631],9.02 ± 0.38
10,CCATTAAATACATACACACCCACACCCAAAAAAAAA [CACACA_site4633],9.04 ± 0.33
11,AAAAAAAAAAATATAACACACAAAAAATTGTATCGA [CACACA_site1144],8.28 ± 0.56
12,ACAAAATTTACAAAATGTACATATTGTAGATATTGT [XGTACX_site7618],8.34 ± 0.28
13,ATATAGTAAAATTATACACACATGAATTTTCCCATA [CACACA_site3113],8.35 ± 0.32
14,ATATAATGATAATATTGTACATGTTATATTTCAATA [XGTACX_site8645],8.36 ± 0.37
15,ATATATTTAATATTCACACATAATTATTTTTACTCT [CACACA_site5438],8.59 ± 0.38
16,TTGTAATATCTTGTCACACATATATATATATATATA [CACACA_site4937],10.2 ± 0.57
17,TATAGATAAGAATATGCACACATTTTATTTTTTTTT [CACACA_site1982],8.33 ± 0.2
18,TTTTTAATTTATTAAGAAGTAAAGAATAACTCTTTT [TGCATGCA_negctrl_site101],7.74 ± 0.37
19,AAACATTAAAATAACTCACACATTTTTCTAGTCTTC [CACACA_site4612],8.36 ± 0.44
20,GTATTATCTTTTAATAGTACATATTTTTTTGAAACA [XGTACX_site4050],8.26 ± 0.28
21,CATATAATATTTGAAACTATATATAAATATAAGGTA [TGCATGCA_negctrl_site19],8.23 ± 0.34
22,AATATATTTTTATATTGTACAAAAGAAAAAAAATAT [XGTACX_site1689],8.77 ± 0.47

row,Sequence,gcPBM binding intensity (ln)
1,ATTTATTCATAGACAACAAGAAAAAAAAAAAAAATT [CACACA_negctrl_site1168],8.37 ± 0.52
2,AGTTTTCCATGTTAATGTACTTAACAATACCATAAT [XGTACX_site209],8.9 ± 0.49
3,TATATCCATATTGTATGTACACATATAATACCAATG [XGTACX_site7230],8.56 ± 0.22
4,CATACATACAGACACACACACATATATATATATATA [CACACA_site2920],10.1 ± 0.35
5,ATAAAAATACAGTTAACACACATGTGGATATATATG [CACACA_site3771],9.25 ± 0.44
6,AACATAAAAATGAACATACACACATATATATATATA [CACACA_site2497],10.1 ± 0.28
7,AAACAAAAAAGTAAGAAAAGGGATGATTGGATCCAA [CACACA_negctrl_site1230],8.61 ± 0.64
8,AGATATTATAATTAATGTACAAAAAGAAAAAATAGA [XGTACX_site8964],8.87 ± 0.37
9,CATATGTATATGACTACACACAAGGGTGTACAGATA [CACACA_site4776],8.37 ± 0.28
10,TATTATTCTGTATTTGCATGTGATCATATATATGTA [TGCATGCA_site1053],9.17 ± 0.37
11,GTATATCATTTTGGGGTGCTTAAAAATAATGAATAC,9.05 ± 0.38
12,TATATAACATAATATACACACATTATGTGCGTAATT [CACACA_site4073],8.44 ± 0.3
13,TTTTTTTTTTTTTATTGTACAAAGGTATAAAATAAT [XGTACX_site2396],8.61 ± 0.57
14,TTTTTTTTTTTTTATTGTACTAGTAGATATATATAC [XGTACX_site3463],8.5 ± 0.49
15,CCAATATATACATATATATAGTTATATATATTTCCT [TGCATGCA_negctrl_site38],8.38 ± 0.53
16,GTGTCAAATTTTATAACACACAAAAGATTATATAAG [CACACA_site4086],8.46 ± 0.47
17,ATTAAAAATTAATATAAACACACAAAAATTAATAAA [CACACA_site8019],8.58 ± 0.37
18,TCCTCGCGTAATACTTTTCAAATAAAAAAAATAAAA [TGCATGCA_negctrl_site403],8.38 ± 0.38
19,AAACATACTTGATGCAGTACACATTATAAGCACATA [XGTACX_site3359],8.78 ± 0.18
20,GGACTTAAATAAAATGGTACAGAATTTATATATATT [XGTACX_site8214],8.4 ± 0.52
21,TAATGGAATACATATAGTACATAATATTACATACAT [XGTACX_site5737],8.36 ± 0.38
22,TTTTAAAAATTAAAAAAATTAAATGTAAAAAAATGA [CACACA_negctrl_site861],8.52 ± 0.53
